# Data as given in PubChem BioAssay (EPA / NIEHS).
# For some of these results: Shown are results outside the selection of hits, which stands elsewhere. Inconclusive results are not listed. Only a part is listed here, and it is no random draw. The source made the active and inactive calls. Rule for the calls, unless noted: active = hit-call score of the fitted dose curve at least 0.9, where 1 is the maximum; inactive = score below 0.9.
# Tests used:
# [1] = target: human Thyroid Receptor alpha (THRa1), THRA (gene 7067) (UniProt P10827); assay: ATG_THRa1_TRANS: Attagene TRANS-FACTORIAL HepG2 Assay for human Thyroid Receptor alpha (THRa1) (AID 2283014; active = hit-call score of the fitted dose curve at least 0.9, where 1 is the maximum)
# Procedure, shortened: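 Transient HepG2 transfection, NR-Gal4 chimera driving GAL4-UAS reporters; 24 h compound exposure; total RNA, oligo(dT) RT, PCR, fluorescent primer extension, capillary electrophoresis. Upward direction vs DMSO control.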
# [2] = target: human Vitamin D Receptor (VDR), VDR (gene 7421) (UniProt P11473); assay: ATG_VDR_TRANS: Attagene TRANS-FACTORIAL HepG2 Assay for human Vitamin D Receptor (VDR) (AID 2283022; active = hit-call score of the fitted dose curve at least 0.9, where 1 is the maximum)
# Procedure, shortened: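 RT-PCR/capillary electrophoresis read-out of reporter mRNA induction in transiently transfected HepG2; 24 h dosing; chimeric NR-Gal4 (TRANS format); gain-of-signal fit against DMSO baseline.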
# [3] = read-out: Vascular endothelial growth factor receptor 2 (Homo sapiens) (UniProt P35968); assay: BSK_4H_VEGFRII: BioMAP Diversity Plus: 4H Assay for Vascular endothelial growth factor receptor 2 (VEGFR2) Biomarker Activity (AID 2283031); conditions: actives raise or lower the signal; primary human endothelial cells (HUVEC)
# Procedure, shortened: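 HUVEC (human primary), 4H system; 24 h post-dose; VEGFRII by ELISA; bidirectional curve fit vs DMSO baseline; gain or loss of signal scored.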
# [4] = read-out: Vascular cell adhesion molecule 1 (VCAM1), VCAM1 (gene 7412); assay: BSK_4H_VCAM1: BioMAP Diversity Plus: 4H Assay for Vascular cell adhesion molecule 1 (VCAM1) Biomarker Activity (AID 2283033); conditions: actives raise or lower the signal; primary human endothelial cells (HUVEC)
# Procedure, shortened: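 Primary human umbilical vein endothelial cells, 4H stimulation system, treated for 24 h; cell-surface VCAM-1 quantified by ELISA. Bidirectional fitting against DMSO; cytotoxicity tracked by SRB total-protein staining in parallel cultures.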
# [5] = read-out: Interleukin-1 alpha (IL1a), IL1A (gene 3552); assay: BSK_KF3CT_IL1a: BioMAP Diversity Plus: KF3CT Assay for Interleukin-1 alpha (IL1a) Biomarker Activity (AID 2283070); conditions: actives raise or lower the signal; primary human keratinocytes with fibroblasts
# Procedure, shortened: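 Chemicals were dosed onto co-cultured human keratinocytes and foreskin fibroblasts, IL-1a was quantified by ELISA at 24 h, and activity was fitted in both directions relative to DMSO controls.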
# [6] = read-out: Transforming growth factor beta 1 (TGFb1), TGFB1 (gene 7040); assay: BSK_KF3CT_TGFb1: BioMAP Diversity Plus: KF3CT Assay for Transforming growth factor beta 1 (TGFb1) Biomarker Activity (AID 2283072); conditions: actives raise or lower the signal; primary human keratinocytes with fibroblasts
# Procedure, shortened: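 Human keratinocyte/foreskin fibroblast co-culture; TGF-b1 measured by ELISA 24 h after dosing, fitted bidirectionally versus DMSO. Cytotoxicity checked in parallel cultures by total protein (SRB staining, 560 nm).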
# CD69, CD69 (gene 969) = assay: BSK_SAg_CD69: BioMAP Diversity Plus: SAg Assay for CD69 Biomarker Activity (AID 2283089); conditions: actives raise or lower the signal; primary human HUVEC with PBMC;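 note: cell surface CD69 protein quantified by ELISA with fluorescence detection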
# Procedure, shortened: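 HUVEC co-cultured with PBMC were dosed with chemical, and CD69 was measured by ELISA with fluorescence read-out 24 h later. Bidirectional curve fitting used DMSO as negative control and activity baseline.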
# [7] = target: rat CYP2C11, Cyp2c11 (gene 29277) (UniProt P08683); assay: NVS_ADME_rCYP2C11: NovaScreen (NVS) CYP450-related Enzyme Activity (ADME) Assay for rat CYP2C11 (AID 2283118; active = hit-call score of the fitted dose curve at least 0.9, where 1 is the maximum)
# Experimental: NVS_ADME_rCYP2C11 is a biochemical, single-readout assay that uses extracted gene-proteins in a cell-free assay. Measurements were taken 0.33 hour after chemical dosing in a 96-well plate.NVS_ADME_rCYP2C11 is one of one assay component(s) measured or calculated from the NVS_ADME_rCYP2C11 assay. It is designed to make measurements of enzyme activity, a form of enzyme reporter, as detected with fluorescence intensity signals by Fluorescence technology.Data from the assay component NVS_ADME_rCYP2C11 was analyzed into 1 assay endpoint. This assay endpoint, NVS_ADME_rCYP2C11, was analyzed in the positive analysis fitting direction relative to Acetonitrile as the negative control and baseline of activity. Using a type of enzyme reporter, loss-of-signal activity can be used to understand changes in the enzymatic activity as they relate to the gene Cyp2c11. Furthermore, this assay endpoint can be referred to as a primary readout, because this assay has produced multiple assay endpoints where this one serves a enzymatic activity function. To generalize the intended target to other relatable targets, this assay endpoint is annotated to the cyp intended target family, where the subfamily is xenobiotic metabolism. […]
# [8] = target: Cellular tumor antigen p53 (Homo sapiens) (UniProt P04637); assay: TOX21_p53_BLA_p2_ratio: Tox21 HCT-116 p53 Agonism Beta-lactamase Assay, Ratio, Phase 2 (AID 2283592; active = hit-call score of the fitted dose curve at least 0.9, where 1 is the maximum)
# Procedure, shortened: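 In this cell-based reporter format, HCT116 cells were dosed with chemicals delivered from DMSO by 217-fold dilution and incubated 16 h at 37C. Emission at 460 and 530 nm after 2 h CCF4-AM loading provided the ratio, fitted upward versus DMSO.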
# [9] = TOX21_p53_BLA_p5_viability: Viability Assessment in the Tox21 HCT-116 p53 Agonism Beta-lactamase Assay, Phase 5 (AID 2283600; active = hit-call score of the fitted dose curve at least 0.9, where 1 is the maximum)
# Procedure, shortened: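 Compounds, pinned from DMSO at 217-fold dilution, were left on the cells for 16 h. The viability endpoint was ATP content measured by CellTiter-Glo luminescence, where falling signal reflects cytotoxicity.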
# [10] = read-out: Human Leukocyte Antigen - DR isotype (HLADR), HLA-DRA (gene 3122); assay: BSK_3C_HLADR: BioMAP Diversity Plus: 3C Assay for Human Leukocyte Antigen - DR isotype (HLADR) Biomarker Activity (AID 2283019); conditions: actives raise or lower the signal; primary human endothelial cells (HUVEC)
# Procedure, shortened: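 HUVEC, 3C stimulation, 24 h post-dose; HLA-DR by ELISA; bidirectional curve fit vs DMSO baseline; gain or loss of signal scored.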
# [11] = read-out: Cytochrome P450 (CYP1A2), CYP1A2 (gene 1544); assay: LTEA_HepaRG_CYP1A2: Life Technologies and Expression Analysis (LTEA) Assay for Cytochrome P450 (CYP1A2) using HepaRG (AID 2283479); conditions: actives raise or lower the signal; mRNA level, 48 h
# Procedure, shortened: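 HepaRG, 48 h exposure, top 100 uM, half-log 8-pt, 0.5% DMSO vehicle, duplicates. Readout: TaqMan qRT-PCR of CYP1A2 mRNA, housekeeping-normalized (ACTB/GAPDH/POLR2A). Gain/loss fit relative to DMSO baseline.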
# [12] = read-out: Matrix Metallopeptidase 1 (MMP1), MMP1 (gene 4312); assay: BSK_BE3C_MMP1: BioMAP Diversity Plus: BE3C Assay for Matrix Metallopeptidase 1 (MMP1) Biomarker Activity (AID 2283024); conditions: actives raise or lower the signal; primary human bronchial epithelial cells
# Procedure, shortened: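 Human primary bronchial epithelial cells (BE3C system) dosed for 24 h; MMP-1 quantified by ELISA. Bidirectional fit against DMSO; cytotoxicity tracked in parallel cultures by SRB total-protein staining.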
# [13] = target: rat Adrenergic Receptor, Beta (Adrb), Non-selective Binding, Adrb1 (gene 24925) (UniProt P18090); assay: NVS_GPCR_rAdrb_NonSelective: NovaScreen (NVS) G Protein-Coupled Receptor Assay for rat Adrenergic Receptor, Beta (Adrb), Non-selective Binding (AID 2283298; active = hit-call score of the fitted dose curve at least 0.9, where 1 is the maximum)
# Procedure, shortened: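 Non-selective beta-adrenergic radioligand binding in rat cortical membranes, 1 h incubation, filter-based scintillation read-out. Primary screen 25 uM in duplicate; hits retested in concentration-response up to 50 uM, DMSO baseline.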
# [14] = read-out: Peroxisomal acyl-coenzyme A oxidase 1 (ACOX1) gene, ACOX1 (gene 51); assay: LTEA_HepaRG_ACOX1: Life Technologies and Expression Analysis (LTEA) Assay for Peroxisomal acyl-coenzyme A oxidase 1 (ACOX1) gene using HepaRG (AID 2283467); conditions: actives raise or lower the signal; mRNA level, 48 h
# Procedure, shortened: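 Measured by qRT-PCR against three housekeeping genes: ACOX1 transcript change in human HepaRG cells after 48 h dosing. Concentrations ran up to 100 uM in half-log steps. Curves were fitted bidirectionally relative to 0.5% DMSO.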
# [15] = read-out: Heat shock 70 kDa protein 1 (HSPA1A), gene 3303; assay: LTEA_HepaRG_HSPA1A: Life Technologies and Expression Analysis (LTEA) Assay for Heat shock 70 kDa protein 1 (HSPA1A) using HepaRG (AID 2283502); conditions: actives raise or lower the signal; mRNA level, 48 h
# Procedure, shortened: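 Human HepaRG cells in serum-free induction medium were exposed in duplicate for 48 h to 8 half-log concentrations, highest 100 uM, in 0.5% DMSO. HSPA1A mRNA read by TaqMan qRT-PCR, normalized to ACTB, GAPDH, POLR2A, fitted bidirectionally against DMSO.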
# [16] = read-out: Interleukin-10 (IL10), IL10 (gene 3586); assay: BSK_IMphg_IL10: BioMAP Diversity Plus: IMphg Assay for Interleukin-10 (IL10) Biomarker Activity (AID 2284294); conditions: primary human endothelial cells with macrophages
# Procedure, shortened: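 Human venular endothelial cells cocultured with macrophages, dosed 24 h; IL-10 measured by ELISA, activity relative to DMSO. Cytotoxicity assessed in parallel cultures by sulforhodamine B total-protein staining.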
# [17] = read-out: Monokine induced gamma interferon (MIG), CXCL9 (gene 4283); assay: BSK_3C_MIG: BioMAP Diversity Plus: 3C Assay for Monokine induced gamma interferon (MIG) Biomarker Activity (AID 2283021); conditions: actives raise or lower the signal; primary human endothelial cells (HUVEC);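 for AC50: MIG protein level measured by immunoassay in the treated endothelial cultures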
# Procedure, shortened: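 HUVEC primary endothelial cultures dosed with chemical; MIG quantified by ELISA at 24 h. Data fitted bidirectionally against DMSO control, with parallel SRB total-protein staining for cytotoxicity.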
# [18] = BSK_SAg_Proliferation: Cell Proliferation Assessment in the BioMAP Diversity Plus: SAg Assay (AID 2283095); conditions: primary human HUVEC with PBMC
# Procedure, shortened: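 Human umbilical vein endothelial cells co-cultured with PBMC; sulforhodamine B total-protein staining (0.1% SRB after 10% TCA fixation, absorbance 560 nm) at 96 h in sub-confluent culture. Fitted bidirectionally against DMSO.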
# [19] = read-out: Macrophage colony-stimulating factor (MCSF), CSF1 (gene 1435); assay: BSK_CASM3C_MCSF: BioMAP Diversity Plus: CASM3C Assay for Macrophage colony-stimulating factor (MCSF) Biomarker Activity (AID 2283044); conditions: actives raise or lower the signal; primary human coronary artery smooth muscle cells;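 note: M-CSF protein amount quantified by ELISA after 24 h exposure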
# [20] = read-out: Monocyte Chemoattractant Protein-1 (MCP1), CCL2 (gene 6347); assay: BSK_LPS_MCP1: BioMAP Diversity Plus: LPS Assay for Monocyte Chemoattractant Protein-1 (MCP1) Biomarker Activity (AID 2283081); conditions: actives raise or lower the signal; primary human HUVEC with PBMC;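 note: secreted MCP-1 protein quantified by ELISA in culture supernatant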
# Procedure, shortened: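 ELISA read-out of MCP-1 after 24 h chemical dosing of a human umbilical vein endothelial cell/peripheral blood mononuclear cell co-culture stimulated with LPS. Gain or loss of signal fitted relative to DMSO controls.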
# [21] = BSK_SAg_PBMCCytotoxicity: PBMC Cytotoxicity Assessment in the BioMAP Diversity Plus: SAg Assay (AID 2283093); conditions: primary human HUVEC with PBMC;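 note: PBMC superantigen activated with SEB plus TSST-1 one hour after compound addition; PBMC viability measured as Alamar Blue reduction fluorescence at 546/580 nm; fitted both ways against DMSO so a hit may be loss or gain of signal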
# Procedure, shortened: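 Compound added to 75,000 PBMC/well for 1 h; SEB and TSST-1 then added at 20 ng/mL final each; 90 h incubation; Alamar Blue 6 h; read 546/580 nm ex/em. Activity fitted bidirectionally relative to DMSO baseline.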
# [22] = target: Estrogen receptor (Homo sapiens) (UniProt P03372); assay: OT_ER_ERaERa_1440: Odyssey Thera (OT) 24-hour HEK293T Protein-Complementation Assay for Estrogen Receptor-alpha/-alpha Homodimer (AID 2283349; active = hit-call score of the fitted dose curve at least 0.9, where 1 is the maximum;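 note: hits raise fluorescence above DMSO for agonists and antagonists alike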)
# Procedure, shortened: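 Protein-fragment complementation between two human ERα ligand-binding domains (aa 310-547) in stably transfected HEK293T cells was monitored after 24 h treatment, using fluorescence intensity relative to vehicle controls.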
# UniProt P11473, sequence (P11473 whole entry, looked up, the tested form may be a part): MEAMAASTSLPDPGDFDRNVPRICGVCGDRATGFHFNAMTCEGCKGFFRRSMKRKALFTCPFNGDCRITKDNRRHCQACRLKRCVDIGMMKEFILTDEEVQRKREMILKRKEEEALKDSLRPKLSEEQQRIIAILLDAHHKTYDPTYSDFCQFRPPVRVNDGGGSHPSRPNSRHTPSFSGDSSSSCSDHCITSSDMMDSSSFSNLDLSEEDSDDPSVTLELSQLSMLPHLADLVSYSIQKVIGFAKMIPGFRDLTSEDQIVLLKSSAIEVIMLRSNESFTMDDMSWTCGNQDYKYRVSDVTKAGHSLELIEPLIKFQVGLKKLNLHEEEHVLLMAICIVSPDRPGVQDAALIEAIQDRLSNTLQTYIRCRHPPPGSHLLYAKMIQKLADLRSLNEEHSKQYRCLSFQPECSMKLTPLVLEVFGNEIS
# UniProt P18090, sequence (P18090 whole entry, looked up): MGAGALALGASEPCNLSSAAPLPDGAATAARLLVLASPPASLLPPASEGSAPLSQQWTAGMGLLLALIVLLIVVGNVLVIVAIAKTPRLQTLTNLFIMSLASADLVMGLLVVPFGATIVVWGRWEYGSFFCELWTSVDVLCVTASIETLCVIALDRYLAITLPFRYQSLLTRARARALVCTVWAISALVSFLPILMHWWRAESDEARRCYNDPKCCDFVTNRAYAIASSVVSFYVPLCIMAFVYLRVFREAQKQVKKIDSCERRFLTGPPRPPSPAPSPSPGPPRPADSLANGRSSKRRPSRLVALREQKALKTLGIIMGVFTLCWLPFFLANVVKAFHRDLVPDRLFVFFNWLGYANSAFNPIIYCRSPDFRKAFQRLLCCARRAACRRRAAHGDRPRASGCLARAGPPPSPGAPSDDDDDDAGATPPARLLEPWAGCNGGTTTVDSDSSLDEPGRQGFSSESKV
# UniProt P03372, sequence (P03372 whole entry, looked up, the tested form may be a part): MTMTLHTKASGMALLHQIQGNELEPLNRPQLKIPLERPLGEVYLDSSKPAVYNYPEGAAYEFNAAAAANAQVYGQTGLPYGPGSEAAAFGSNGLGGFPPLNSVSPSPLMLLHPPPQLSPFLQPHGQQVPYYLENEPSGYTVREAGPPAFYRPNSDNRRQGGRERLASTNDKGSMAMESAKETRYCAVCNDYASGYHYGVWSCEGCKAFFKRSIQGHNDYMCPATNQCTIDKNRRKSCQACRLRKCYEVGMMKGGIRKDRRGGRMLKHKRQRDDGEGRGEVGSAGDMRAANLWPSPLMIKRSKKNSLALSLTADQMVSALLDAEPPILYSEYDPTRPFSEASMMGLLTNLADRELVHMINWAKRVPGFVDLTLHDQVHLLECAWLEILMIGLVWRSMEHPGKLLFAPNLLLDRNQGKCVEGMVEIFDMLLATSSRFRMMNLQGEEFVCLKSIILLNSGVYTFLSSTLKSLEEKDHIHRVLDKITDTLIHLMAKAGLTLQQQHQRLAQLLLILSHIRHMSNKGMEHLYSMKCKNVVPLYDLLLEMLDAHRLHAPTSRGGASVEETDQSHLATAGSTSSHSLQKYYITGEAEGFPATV
# UniProt P04637, sequence (P04637 whole entry, looked up): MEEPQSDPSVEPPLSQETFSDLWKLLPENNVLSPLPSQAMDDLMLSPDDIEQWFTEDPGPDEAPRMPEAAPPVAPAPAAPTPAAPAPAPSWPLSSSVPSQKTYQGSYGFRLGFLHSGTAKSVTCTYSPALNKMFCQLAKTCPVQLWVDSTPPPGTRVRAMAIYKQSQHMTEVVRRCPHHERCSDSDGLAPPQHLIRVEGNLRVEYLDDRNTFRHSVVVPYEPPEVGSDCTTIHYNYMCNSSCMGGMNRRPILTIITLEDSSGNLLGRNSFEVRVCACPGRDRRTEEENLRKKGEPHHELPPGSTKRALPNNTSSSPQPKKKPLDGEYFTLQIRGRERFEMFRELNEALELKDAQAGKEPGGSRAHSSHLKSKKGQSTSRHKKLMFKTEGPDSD
# UniProt P08683, sequence (P08683 whole entry, looked up): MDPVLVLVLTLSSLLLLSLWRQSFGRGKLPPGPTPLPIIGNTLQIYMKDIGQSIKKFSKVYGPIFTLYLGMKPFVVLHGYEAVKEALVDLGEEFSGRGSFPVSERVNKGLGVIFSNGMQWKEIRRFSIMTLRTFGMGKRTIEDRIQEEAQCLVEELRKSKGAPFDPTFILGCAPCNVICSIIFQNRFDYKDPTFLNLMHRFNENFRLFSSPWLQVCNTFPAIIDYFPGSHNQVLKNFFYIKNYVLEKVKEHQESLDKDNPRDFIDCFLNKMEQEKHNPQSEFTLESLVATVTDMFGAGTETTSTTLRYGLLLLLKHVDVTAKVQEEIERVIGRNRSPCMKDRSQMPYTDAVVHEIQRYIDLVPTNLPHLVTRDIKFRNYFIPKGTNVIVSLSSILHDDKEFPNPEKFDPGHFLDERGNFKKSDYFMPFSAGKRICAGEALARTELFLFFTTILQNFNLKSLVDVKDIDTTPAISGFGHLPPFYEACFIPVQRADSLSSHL
# UniProt P10827, sequence (P10827 whole entry, looked up, the tested form may be a part): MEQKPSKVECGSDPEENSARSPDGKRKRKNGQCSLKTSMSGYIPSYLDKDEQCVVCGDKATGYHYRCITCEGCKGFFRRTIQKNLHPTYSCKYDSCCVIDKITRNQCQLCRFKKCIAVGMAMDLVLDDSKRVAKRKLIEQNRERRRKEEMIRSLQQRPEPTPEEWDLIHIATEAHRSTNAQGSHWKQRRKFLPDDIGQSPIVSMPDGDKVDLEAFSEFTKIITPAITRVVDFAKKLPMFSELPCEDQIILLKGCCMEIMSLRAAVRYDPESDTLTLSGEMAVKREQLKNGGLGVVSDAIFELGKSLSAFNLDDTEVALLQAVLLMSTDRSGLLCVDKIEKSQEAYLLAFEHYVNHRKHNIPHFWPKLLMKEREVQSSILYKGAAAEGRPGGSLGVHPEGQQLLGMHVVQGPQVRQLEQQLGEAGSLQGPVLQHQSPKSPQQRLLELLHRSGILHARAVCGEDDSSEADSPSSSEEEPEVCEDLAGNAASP
smiles,measurement,setting,value
N#Cc1nc(Cl)c(Cl)c(Cl)c1Cl,outcome,[1],inactive
CC(=O)[C@H]1CC[C@H]2[C@@H]3CCC4=CC(=O)CC[C@]4(C)[C@H]3CC[C@]12C,outcome,[2],inactive
same,outcome,[3],inactive
same,outcome,[4],inactive
same,outcome,[5],inactive
same,outcome,[6],inactive
same,AC50,"CD69, CD69 (gene 969)",active: 26.7 µM
same,AC50,[7],active: 5.49 µM
same,outcome,[8],inactive
same,outcome,[9],inactive
Cc1ccc2oc(CN(Cc3ccccc3)C(=O)Nc3c(F)cc(F)cc3F)c(-c3ccc(Cl)cc3)c2c1,AC50,[10],active: 25.5 µM
same,AC50,[11],active: 16.6 µM
CN(Cc1cnc2nc(N)nc(N)c2n1)c1ccc(C(=O)N[C@@H](CCC(=O)O)C(=O)O)cc1,outcome,[12],inactive
same,outcome,[13],inactive
same,outcome,[14],inactive
same,outcome,[15],inactive
same,outcome,[16],inactive
Clc1cc(Cl)c2c(c1)N=C1CCCCCN1C2,outcome,[2],inactive
c1ccc(CCc2ccccc2)cc1,outcome,[17],inactive
same,AC50,[18],active: 34.4 µM
Cc1ccc(-c2cc(C(F)(F)F)nn2-c2ccc(S(N)(=O)=O)cc2)cc1,AC50,[17],active: 38.9 µM
same,AC50,[19],active: 31.7 µM
same,AC50,[20],active: 35.5 µM
same,AC50,[21],active: 14.1 µM
same,outcome,[22],inactive
